Source: PubChem BioAssay AID1963576 (National Center for Advancing Translational Sciences (NCATS), 2024)
About 60 (0.1%) of roughly 46,000 compounds were called active. Another 3% or so got no clear call; they are omitted. Calls follow the shape of the dose curve; as a rule, active = well fitted inhibition curve with a large enough effect; inconclusive = small, poorly fitted or top-dose-only effect; inactive = no such curve, though single readings can be large or run the other way. The list shows a part of the results.

experiment: Primary qHTS assay for Inhibitors of ovarian cancer metastasis using an organotypic tumor microenvironment (TME) model.; also: nearly all actives have a fitted effect of over 65% in size;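 as to activity change, negative = inhibition: plate controls were DMSO wells for no effect and tomatine positive control wells for full effect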; details: SKOV3ip1-GFP adhesion/invasion on 3D omental model, fluorescence; series mostly up to 45.8 µM; activity change, negative = inhibition: at the top concentration
Method in brief: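 A 3D layer of primary human omental fibroblasts, mesothelial cells, fibronectin and collagen I, grown 48 hr, received SKOV3ip1-GFP cells in serum-free medium plus compounds at 0.36-46 umol/L. After 2 hr RT and 16 hr 37 C, fixed adherent GFP cells were counted; normalized to DMSO and tomatine.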

outcome, inactive:
CCOC(=O)c1c(C)[nH]c(C)c1S(=O)(=O)NCC(=O)Nc1cccc(Cl)c1
O=C(CSc1nc(Nc2ccccc2)c2ccccc2n1)c1ccc(Cl)cc1
COc1ccc(-c2noc(N3CCC(C(=O)N4CCN(c5cccc(OC)c5)CC4)CC3)n2)cc1
COc1cccc(NC(=O)Cn2c(=O)n(CCC(=O)NCc3ccccc3OC)c(=O)c3ccccc32)c1
CCOc1ccc2c(c1)c(=O)c(C(=O)c1ccc(CC)cc1)cn2CC(=O)Nc1ccc2c(c1)OCCO2
O=C(Nc1cccc(F)c1)c1cnc2sc(N3CCCC3)nn2c1=O
CCOC(=O)c1ccc(N2C(=O)c3n[nH]c(-c4ccco4)c3C2c2ccccc2OC)cc1 (stereo unspecified)
COc1ccc(N(C)S(=O)(=O)c2ccc3c(c2)CCN3C(=O)CCC(=O)O)cc1
Cc1nn(S(=O)(=O)c2ccc(F)cc2)c(C)c1S(=O)(=O)N1CCCCCC1
COc1cc(-c2cc(OC)c3c(C)oc(C)c3c(=O)c2)ccc1OC(=O)c1cccc(C)c1
CCOc1ccc(C2C(C(=O)Nc3ccc(OC)cc3)=C(C)Nc3nc(CCCO)nn32)cc1 (stereo unspecified)
COc1ccc(NC(=O)C2CCN(c3cc(C)nc4c(-c5ccc(Cl)cc5)c(C)nn34)CC2)cc1
Cc1ccc(C2C=C(c3ccccc3)Nc3nc(NS(C)(=O)=O)nn32)cc1 (stereo unspecified)
CC(C)c1ccc(NC(=O)Cn2nnc(C(=O)NCc3ccc4c(c3)OCO4)c2N)cc1
Cc1ccc(NC(=O)Cn2c(=O)n(Cc3ccc4c(c3)OCO4)c(=O)c3oc4ccccc4c32)cc1C

Activity change, negative = inhibition, inactive:
CCOc1ccc(CNC(=O)c2ccc(NC(=O)N3CCCCc4ccccc43)cc2)cc1 4.14%
Cc1c(NC(=O)Cc2ccc(Cl)cc2)cccc1-c1nc2cccnc2s1 0.621%
CCOC(=O)c1c(S(=O)(=O)N2CCCC(C(=O)Nc3cccc(CC)c3)C2)c(C)n(CC)c1C (stereo unspecified) -1.59%
CSc1ncc(Cl)c(C(=O)Nc2c(C(=O)c3ccc(Cl)cc3)oc3ccccc23)n1 0.314%
Cc1ccc(-n2ncc(C(=O)N3CCN(c4ccccc4F)CC3)c2C2CCN(C(=O)OC(C)(C)C)CC2)cc1C 0.176%
Cc1cccc(OC(=O)CSc2nnc(-c3cccs3)o2)c1C -2.81%
O=C(NCCO[N+](=O)[O-])c1cccnc1 4.37%
Cc1cc(C)cc(NC(=O)NCc2c(-n3cccc3)sc3c2CCCC3)c1 -2.12%
Cc1ccccc1Nc1c(-c2c[nH]c3ccccc23)nc2ccc(Cl)cn12 -10.5%
Cc1cccc(CNC(=O)Cn2nc(C)c3nn(-c4ccc(Cl)cc4)c(C)c3c2=O)c1 -2.96%
Cc1c(CNC2CCCCCC2)c(C(=O)O)c(C)n1Cc1cccc(Cl)c1 1.45%
Cc1ccc(NS(=O)(=O)c2ccc3c(c2)n(C)c(=O)n3C)c(C)c1 -6.71%
CC(=O)N1CCN(c2csc3ccc(Cl)cc3c2=O)CC1 0.163%
CCCCOC(=O)c1ccc(NC(=O)c2ccc3c(c2)CCN3S(C)(=O)=O)cc1 -4%
Cc1cccc(C(c2sc3nc(-c4ccco4)nn3c2O)N2CCOCC2)c1 (stereo unspecified) -0.471%
Cc1cccc(N2CCN(C(=O)CCS(=O)(=O)c3ccc4c(c3)CC(=O)N4C)CC2C)c1 (stereo unspecified) 8.2%
Clc1cccc(CNCCCSc2nnnn2-c2ccccc2)c1 -27.5%
COC(=O)c1scc(-c2ccc(C)cc2)c1S(=O)(=O)Nc1cc(C)c(Cl)cc1OC 4.81%
COc1ccc(NC(=O)Cn2cc(C(=O)c3ccc(C)c(C)c3)c(=O)c3cc(OC)ccc32)cc1 4.31%
CCOC(=O)c1c(-c2ccccc2)oc2ccc(OCc3ccccc3Br)cc12 1.57%
CCOc1ccccc1NC(=O)Cn1c(=O)oc2ccccc21 -3.66%
Cc1ccc(CSC2=NC(C)(C)Nc3ccccc32)c(C)c1 0.693%
COc1ccc(-c2csc3ncnc(Nc4ccccc4)c23)cc1 -7.37%
O=C(Cn1cc(C(=O)c2ccco2)c2ccccc21)Nc1ccccc1C(F)(F)F 0.26%
Fc1cccc(CN2CCc3nc(Nc4ccc5c(c4)OCCO5)ncc3C2)c1F 4.3%
O=C(NCCc1cccs1)c1ccc(Cn2c(SCc3cccc(F)c3)nc3cccnc32)cc1 11.7%
COc1ccc(Cl)cc1NC(=O)Cn1c(=O)n2nc(-c3ccccc3)nc2c2ccccc21 11.4%
COc1cc(C2C=C(C(=O)O)Nc3ncnn32)ccc1O (stereo unspecified) -3.53%
COc1ccc(-c2csc(-c3c(N)c(C(=O)c4ccc(OC)c(OC)c4)n4ccccc34)n2)cc1 -9.84%
COc1ccc(CNC(=O)c2nn(C)c3c2CSc2ccccc2-3)cc1 20.4%
COC(=O)c1c(C)oc2ccc(N(C(=O)c3ccncc3)S(=O)(=O)c3ccc(Br)cc3)cc12 -13.8%
COc1ccc(CNS(=O)(=O)c2ccc(-c3cc(C(F)(F)F)on3)s2)cc1OC -1.91%
CCN1CCc2c(sc(-n3cccc3)c2C(C)NC(=O)Nc2ccc(C(=O)OC)cc2)C1 (stereo unspecified) -1.79%
Cc1ccc(NC(=O)Cn2cc3c(n2)CCCC3)cc1Cl -12%
COc1ccc(C)c2sc(N(Cc3cccnc3)C(=O)c3cccs3)nc12 -1.47%
COc1ccc(NC(=O)c2ccco2)cc1NC(=O)c1ccccc1[N+](=O)[O-] -4.05%
Cc1ccc(NC(=O)Cn2c(=O)n(Cc3ccccc3)c(=O)c3c(C)c(C(=O)N(C)C)sc32)c(C)c1 -0.903%
CCc1cccc(C)c1Nc1nn2c(=O)c3ccccc3nc2s1 -2.7%
O=C1Nc2ccc(I)cc2C1=Cc1cc(Br)c(O)c(Br)c1 13.6%
Cc1ccc(CNC(=O)c2ccc3c(c2)c(C)c(C)n3Cc2ccc(Cl)cc2)o1 21.2%
CCc1cccc(C)c1NC(=O)CSc1nc2ccncc2[nH]1 -6.97%
Cc1c(-c2ccccc2)c(=O)oc2c(CN3CCOCC3)c(O)ccc12 5.29%
Cc1ccc(-c2noc(-c3ccc(N4CCCC4)c([N+](=O)[O-])c3)n2)cc1 0.842%
CCCc1cc(=O)[nH]c(SCc2nc(-c3ccc(OCC)cc3)no2)n1 0.239%
Cc1ccc(OCCCCn2c(-c3ccc(Cl)cc3)nc3ccccc3c2=O)cc1 3.01%
CCOC(=O)c1c(C)oc2nc(C)nc(NCCc3ccc(Cl)cc3)c12 9.84%
